Data from the RNAGym collection of RNA variant scans (doi:10.1093/nar/gkz1192).
Read counts are not given, so values of variants with three or more changes are uncertain.

B1: CPEB3 Ribozyme (parent)
chain: UAACAGGGGGCCACAGCAGAAGCGUUCACGUCGCAGCCCCUGUCAGAUUCUGGUGAAUCUGCGAAUUCUGCUGUAUAUCUC

Variants of: B1
Test: self-cleavage, relative activity (ratio to wild type); higher = more cleavage; in vitro, sequencing
Procedure, shortened: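 After error-prone PCR and barcoding, CPEB3 ribozyme mutant libraries were transcribed with T7 RNA polymerase at 37°C for 5 hours, then given 15 min with DNase I before an EDTA stop, and they cleaved during both steps. Reverse transcription with template switching preceded Illumina sequencing. Relative activity divides a variant's cleaved/total read fraction by the unmutated ribozyme's. At least 5 reads were required per variant, and three batches were averaged.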
A3G U31A C40U U51C A77G gave a self-cleavage of 0.15.
A3G U31C A35U A56G U72C showed a self-cleavage of 0.1.
Variant A3G U31C A45G U49C C62U U80A has a self-cleavage of 0.13.
Variant A3G U31C A64G U72A G73U has a self-cleavage of 0.94.
Work on A3G U31C U43C A64G U80C yielded a self-cleavage of 0.04.
With A3G U31C U43C A65G the self-cleavage was 0.35.
For A3G U31C U58C A77G, the self-cleavage was 0.22.
Work on A3G U31C U60C U80C yielded a self-cleavage of 0.25.
Work on A3G U31C U72A U76C yielded a self-cleavage of 0.91.
In the case of A3G U31G U49A U67C U69A, the self-cleavage is reported as 0.14.
In the case of A3G U41A A47U U54A U67C U72C, the self-cleavage is reported as 0.21.
For A3G U41A A56G U67A, the self-cleavage was 0.21.
In the case of A3G U41A C62U A77C, the self-cleavage is reported as 0.12.
A3G U41A U43C showed a self-cleavage of 0.37.
A3G U41A U43C A56G gave a self-cleavage of 0.3.
In the case of A3G U41A U43C U76A A77G, the self-cleavage is reported as 0.38.
A3G U41A U54C showed a self-cleavage of 0.5.
Work on A3G U41C A65C U72C U78A yielded a self-cleavage of 0.3.
For A3G U41C U51A A64U, the self-cleavage was 0.38.
A3G U41C U54C U60A A64U showed a self-cleavage of 0.35.
Work on A3G U41C U69C C71G yielded a self-cleavage of 0.28.
With A3G U41C U72A the self-cleavage was 1.01.
In the case of A3G U41C U80C, the self-cleavage is reported as 0.97.
Variant A3G U43A A57G has a self-cleavage of 0.99.
A3G U43A A57G U72C gave a self-cleavage of 1.08.
For A3G U43C A45G U72C, the self-cleavage was 0.83.
A3G U43C A47G U48C A56U A64U gave a self-cleavage of 0.25.
A3G U43G U69A showed a self-cleavage of 0.13.
In the case of A3G U48C A64G U72C, the self-cleavage is reported as 0.25.
A3G U48C U51C U66C A77G gave a self-cleavage of 0.11.
A3G U48C U51G gave a self-cleavage of 0.41.
Variant A3G U48C U54A U60C A75G has a self-cleavage of 0.09.
A3G U49A U74C showed a self-cleavage of 1.03.
In the case of A3G U49C A57G U72G, the self-cleavage is reported as 0.46.
Work on A3G U49C U60A U76C yielded a self-cleavage of 0.62.
In the case of A3G U49C U72C U78C, the self-cleavage is reported as 0.55.
Variant A3G U51A G52A A57G A77U has a self-cleavage of 1.14.
In the case of A3G U51C A77G, the self-cleavage is reported as 1.15.
For A3G U51C U72C, the self-cleavage was 0.87.
A3G U54C A64U gave a self-cleavage of 0.31.
A3G U54C U58A A64G gave a self-cleavage of 0.46.
Variant A3G U54C U69A A75U has a self-cleavage of 0.67.
In the case of A3G U58C U72G, the self-cleavage is reported as 0.41.
A3G U60A A64U U72A gave a self-cleavage of 0.26.
A3G U60C A75C U78C showed a self-cleavage of 0.36.
A3G U60C U78A showed a self-cleavage of 0.26.
In the case of A3G U69A U76G, the self-cleavage is reported as 0.42.
A3G U69C U78C gave a self-cleavage of 0.74.
Variant A3G U72A G73A has a self-cleavage of 1.29.
With A3G U74C A77U the self-cleavage was 1.22.
In the case of A3U A5C A47U U58C, the self-cleavage is reported as 0.32.
A3U A5C G7C A20U U67C U69C U72G gave a self-cleavage of 0.
With A3U A5G A13C A21G U25C the self-cleavage was 0.74.
A3U A5G A56G U72C showed a self-cleavage of 0.74.
In the case of A3U A5G A65G, the self-cleavage is reported as 0.31.
Variant A3U A5G G7A U43A U54A has a self-cleavage of 0.13.
A3U A5G U25A U49C U72C U78C showed a self-cleavage of 0.1.
In the case of A3U A13G A15U A45G A47G, the self-cleavage is reported as 0.29.
Work on A3U A13G A18U U54A A56U U69C U76A yielded a self-cleavage of 0.16.
With A3U A13G A35G the self-cleavage was 1.12.
A3U A13G C17A U26C U43G U60A C68A showed a self-cleavage of 0.02.
A3U A13G G53A A65U gave a self-cleavage of 0.32.
A3U A13G U26C A35G gave a self-cleavage of 0.2.
Variant A3U A13G U54C has a self-cleavage of 0.4.
Variant A3U A13U C27A U51G U76A has a self-cleavage of 0.13.
Variant A3U A13U U25C U48C has a self-cleavage of 0.13.
A3U A13U U26A U58C U60A gave a self-cleavage of 0.43.
A3U A13U U31C A64G gave a self-cleavage of 0.91.
A3U A13U U41A gave a self-cleavage of 0.22.
For A3U A15G A20G A21G C32U A64G U78C, the self-cleavage was 0.04.
A3U A15G A20G A21G U43A U69A showed a self-cleavage of 0.09.
A3U A15U A28G U72C U76A showed a self-cleavage of 0.58.
Work on A3U A15U A35G yielded a self-cleavage of 1.23.
Variant A3U A15U A35G U41C C59A A64U has a self-cleavage of 0.21.
A3U A15U U41C U74C gave a self-cleavage of 0.65.
For A3U A15U U48C U54C U67C, the self-cleavage was 0.12.
For A3U A18G A20G A35G C40A, the self-cleavage was 0.16.
For A3U A18G G52A, the self-cleavage was 0.88.
Variant A3U A18G U25C has a self-cleavage of 0.3.
For A3U A18G U43C U48C U58C, the self-cleavage was 0.06.
For A3U A18U C32U U49C U66C U74C, the self-cleavage was 0.31.
Work on A3U A18U U26A C34G U54A yielded a self-cleavage of 0.13.
A3U A18U U48C gave a self-cleavage of 0.18.
With A3U A20G A45U U80C the self-cleavage was 0.23.
Variant A3U A20G U26A G63C G73U has a self-cleavage of 1.21.
A3U A20G U41A U43C gave a self-cleavage of 0.47.
A3U A20G U43C U66C showed a self-cleavage of 0.17.
In the case of A3U A20U U31A A57G, the self-cleavage is reported as 0.25.
For A3U A20U U31A U76C, the self-cleavage was 0.11.
With A3U A21C U60A U69C U72C U80C the self-cleavage was 0.08.
A3U A21G A28U A77G showed a self-cleavage of 0.75.
A3U A21G A35G C68A A75G U80C C81U gave a self-cleavage of 0.81.
For A3U A21G U41A A47U A64G U67C U78C, the self-cleavage was 0.08.
Work on A3U A21G U51A C71U yielded a self-cleavage of 0.33.
Work on A3U A21G U51C A56G yielded a self-cleavage of 0.35.
Variant A3U A21G U69C has a self-cleavage of 0.34.
With A3U A21U U25C U60C the self-cleavage was 0.29.
A3U A28C A56G gave a self-cleavage of 0.59.
A3U A35C U49A A64U gave a self-cleavage of 0.1.
In the case of A3U A35G U43C A65U, the self-cleavage is reported as 0.29.
Work on A3U A35G U51A A57G U69A A77G yielded a self-cleavage of 1.08.
Variant A3U A35U U43A A45G U58C has a self-cleavage of 0.25.
Work on A3U A45G U48C A64U U69C U76C yielded a self-cleavage of 0.15.
A3U A45G U80C gave a self-cleavage of 0.74.
A3U A45U U54C C79A gave a self-cleavage of 0.67.
A3U A56G U67C A77U showed a self-cleavage of 0.48.
With A3U A56G U80C the self-cleavage was 1.1.
In the case of A3U A57U U66C, the self-cleavage is reported as 0.32.
A3U C4U C12U A18U A45G A64G gave a self-cleavage of 0.48.
Work on A3U C11G A15U A35U A77U yielded a self-cleavage of 0.82.
For A3U C11G A18U C38A, the self-cleavage was 0.11.
With A3U C11G A20G U25A A47U A57U the self-cleavage was 0.31.
A3U C12A A13G A21U A28U A64G showed a self-cleavage of 0.36.
In the case of A3U C12G A28U U31C U69G, the self-cleavage is reported as 0.16.
A3U C12U A56G A57G U69C showed a self-cleavage of 0.21.
In the case of A3U C12U U67C, the self-cleavage is reported as 0.56.
Work on A3U C14A A45G yielded a self-cleavage of 1.11.
In the case of A3U C14G A18U A20G U41C U69A, the self-cleavage is reported as 1.06.
With A3U C14U U25C U48C the self-cleavage was 0.38.
Variant A3U C17A A56U U80C has a self-cleavage of 0.09.
For A3U C17A U67A, the self-cleavage was 0.35.
Variant A3U C17U U26C has a self-cleavage of 0.31.
For A3U C23A A45C U72C, the self-cleavage was 0.3.
In the case of A3U C23G U51C, the self-cleavage is reported as 0.1.
In the case of A3U C29U U54C A64U, the self-cleavage is reported as 0.17.
With A3U C32A C59G U67C the self-cleavage was 0.08.
Work on A3U C37U U54C yielded a self-cleavage of 0.42.
For A3U C40U U60C, the self-cleavage was 0.28.
A3U G6A C29U U49C U72C U80C showed a self-cleavage of 0.29.
A3U G6A U31C U41A U58A U67A showed a self-cleavage of 0.06.
A3U G8C U26C U72C gave a self-cleavage of 0.38.
In the case of A3U G8U A13G, the self-cleavage is reported as 0.43.
With A3U G9A A13G A20U U31A U78A the self-cleavage was 0.07.
A3U G9A C44A U54C showed a self-cleavage of 0.44.
A3U G9A U25C U74C gave a self-cleavage of 0.11.
Variant A3U G9C A15G U31C U43C A77G has a self-cleavage of 0.11.
In the case of A3U G9U U60C A77U, the self-cleavage is reported as 0.37.
For A3U G9U U78C, the self-cleavage was 0.09.
With A3U G10A C11G A47C A57U the self-cleavage was 0.04.
Work on A3U G10C G24U A35G U54C U72A yielded a self-cleavage of 0.08.
A3U G10U U51A U58C G70A U80C gave a self-cleavage of 0.06.
A3U G19A A20G U31C U43C showed a self-cleavage of 0.
Work on A3U G33U A64G U69A yielded a self-cleavage of 0.11.
With A3U G33U U60C U72A the self-cleavage was 0.1.
A3U G42A U43A U76A U78C showed a self-cleavage of 0.26.
A3U U25A A35U U60G gave a self-cleavage of 0.21.
Work on A3U U25C A35U U60A C79A yielded a self-cleavage of 0.08.
In the case of A3U U25C A64G, the self-cleavage is reported as 0.41.
A3U U25C A65G showed a self-cleavage of 0.59.
With A3U U25C G46U the self-cleavage was 0.08.
With A3U U25C U51A G63A the self-cleavage was 0.37.
A3U U25G U26A A45U showed a self-cleavage of 0.3.
A3U U26A U43C showed a self-cleavage of 0.55.
For A3U U26C C40G U69G U76C, the self-cleavage was 0.03.
Work on A3U U31A A57U yielded a self-cleavage of 0.27.
A3U U31A U43A U51A A56G U69C U80C showed a self-cleavage of 0.15.
Work on A3U U31A U51C U67C U72C yielded a self-cleavage of 0.22.
A3U U31C A35G U54C U58C A64G showed a self-cleavage of 0.18.
With A3U U31C C40U U48C G70U the self-cleavage was 0.16.
In the case of A3U U31C U51C, the self-cleavage is reported as 0.97.
For A3U U31C U80C, the self-cleavage was 1.04.
A3U U41A U54A showed a self-cleavage of 0.28.
For A3U U41G A45G U49C U80A, the self-cleavage was 0.47.
For A3U U51A U80C, the self-cleavage was 0.99.
A3U U51C U58A A65G gave a self-cleavage of 0.17.
A3U U51C U69C showed a self-cleavage of 0.67.
For A3U U51C U78A, the self-cleavage was 0.98.
